According to the supplement of paper PMC4604168 (melanoma cell lines):
This is one part of the list. Repeats are few or missing, and single values can be far off.

Legend:
Assay in all cases: cell count relative to DMSO control; melanoma cells; higher = more viable cells
Details in all cases: library dose: low library concentration; 72 h
MZ2-MEL = system: MZ2-MEL
MeWo = system: MeWo
RPMI7951 = system: RPMI7951
RVH-421 = system: RVH-421
SkMel28 = system: SkMel28
SkMel30 = system: SkMel30
SkMel5 = system: SkMel5
UACC257 = system: UACC257
UACC62 = system: UACC62
SkMel2 = system: SkMel2
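Also: cell number obtained by counting DAPI-stained nuclei in high-throughput microscope images with image analysis software, screen run in 1,536-well plates.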

SMILES | cell count (MZ2-MEL) [%] | cell count (MeWo) [%] | cell count (RPMI7951) [%] | cell count (RVH-421) [%] | cell count (SkMel28) [%] | cell count (SkMel30) [%] | cell count (SkMel5) [%] | cell count (UACC257) [%] | cell count (UACC62) [%] | cell count (SkMel2) [%]
Nc1cccc2c1CN(C1CCC(=O)NC1=O)C2=O (stereo not given) [lenalidomide] + COc1ccc(-c2ccc3c(N4CCOCC4)nc(N4C[C@@H](C)O[C@@H](C)C4)nc3n2)cc1CO [KU0063794] (first compound 1 µM, partner dose 0.02 µM) | 98.3 | 82.9 | 91.3 | 85.8 | 101 | 117 | 105 | 81.6 | 90.7 | –
Nc1cccc2c1CN(C1CCC(=O)NC1=O)C2=O (stereo not given) [lenalidomide] + COc1cc2c(Oc3ccc4[nH]c(C)cc4c3F)ncnc2cc1OCCCN1CCCC1 [cediranib] (first compound 1 µM, partner dose 0.4 µM) | – | 103 | 96.5 | 90.6 | 114 | 117 | 102 | 106 | 93.7 | –
O=C(CCCCCCC(=O)Nc1ccccc1)NO [vorinostat] + Cc1ccc(NC(=O)c2cccc(N(C)C)c2)cc1NC(=O)c1ccc(O)cc1 [ZM336372] (first compound 0.08 µM, partner dose 2 µM) | – | 92.6 | 77.9 | 87.4 | 95.7 | 101 | 105 | 88.1 | 75.8 | 110
Cn1c(Nc2ccc(C(F)(F)F)cc2)nc2cc(Oc3ccnc(-c4ncc(C(F)(F)F)[nH]4)c3)ccc21 + O=S(=O)(c1ccccc1)N(CC(F)(F)F)c1ccc(C(O)(C(F)(F)F)C(F)(F)F)cc1 [T0901317] (first compound 0.08 µM, partner dose 1.4 µM) | 59 | 62.6 | 61.2 | 77.4 | 54.5 | 43.2 | 73.1 | 42.1 | 50.1 | –
O=C(CCCCCCC(=O)Nc1ccccc1)NO [vorinostat] + OCCn1cc(-c2cnc3nnn(Cc4ccc5ncccc5c4)c3n2)cn1 [PF04217903] (first compound 0.08 µM, partner dose 1 µM) | – | 93.3 | 104 | 88.3 | 78 | 101 | 88.7 | 67 | 86.5 | 105
Cn1c(Nc2ccc(C(F)(F)F)cc2)nc2cc(Oc3ccnc(-c4ncc(C(F)(F)F)[nH]4)c3)ccc21 + N#Cc1c(O)c2c(-c3ccc(-c4ccccc4O)cc3)csc2[nH]c1=O [A769662] (first compound 0.08 µM, partner dose 2 µM) | 92.6 | 64 | 67.3 | 68.2 | 55.7 | 62.7 | 68.5 | 38.4 | 43.1 | –
Cn1c(Nc2ccc(C(F)(F)F)cc2)nc2cc(Oc3ccnc(-c4ncc(C(F)(F)F)[nH]4)c3)ccc21 + COc1ccc2c(c1)CCC1C2CCC2(C)C(NCCCCCCN3C(=O)C=CC3=O)CCC12 [U73122] (first compound 0.08 µM, partner dose 0.4 µM) | 69.3 | 66.6 | 53.5 | 63.3 | 63.7 | 54.4 | 72.7 | 39.9 | 43.6 | –
Clc1ccc(Nc2nnc(Cc3ccncc3)c3ccccc23)cc1 [vatalanib] + COc1cc(Nc2ncc(F)c(Nc3ccc4c(n3)NC(=O)C(C)(C)O4)n2)cc(OC)c1OC [Tamatinib] (first compound 2 µM, partner dose 0.4 µM) | – | 82.7 | 88.6 | 81.2 | 91.4 | 65.8 | 100 | 89.8 | 92 | 93
Cn1c(Nc2ccc(C(F)(F)F)cc2)nc2cc(Oc3ccnc(-c4ncc(C(F)(F)F)[nH]4)c3)ccc21 + O=c1cc(-c2cccc3c2Sc2ccccc2S3)oc(N2CCOCC2)c1 [KU55933] (first compound 0.08 µM, partner dose 1 µM) | 83 | 65.1 | 51.9 | 80 | 63 | 71.7 | 79.1 | 41.5 | 49.6 | –
C#Cc1cccc(Nc2ncnc3cc(OCCOC)c(OCCOC)cc23)c1 [erlotinib] + CCCCCCCCCCCC1=C(O)C(=O)C=C(O)C1=O [Embelin] (first compound 0.8 µM, partner dose 1.2 µM) | 94.9 | 82.9 | 93.6 | 108 | 106 | 124 | 101 | 70.9 | 107 | –
Nc1cccc2c1CN(C1CCC(=O)NC1=O)C2=O (stereo not given) [lenalidomide] + COc1cc(N2CCC(N3CCN(C)CC3)CC2)ccc1Nc1ncc(Cl)c(Nc2ccccc2S(=O)(=O)C(C)C)n1 [NVP-TAE684] (first compound 1 µM, partner dose 0.08 µM) | – | 88.9 | 86.7 | 103 | 100 | 107 | 91.6 | 85.7 | 95 | –
COCC[n+]1c2c(n(Cc3cnccn3)c1C)C(=O)c1ccccc1C2=O + COc1cc(N2CCC(N3CCN(C)CC3)CC2)ccc1Nc1ncc(Cl)c(Nc2ccccc2S(=O)(=O)C(C)C)n1 [NVP-TAE684] (first compound 0.0004 µM, partner dose 0.08 µM) | – | 81.6 | 61.8 | 96.1 | 89.3 | 112 | 65.3 | 92.5 | 93.8 | –
O=C(CCCCCCC(=O)Nc1ccccc1)NO [vorinostat] + Cn1cc(/C=C2\C(=O)Nc3cccnc32)c2ccccc21 [GW441756] (first compound 0.08 µM, partner dose 0.4 µM) | 101 | 102 | 95.8 | 144 | 84.7 | 108 | 87.5 | 94.3 | 91.2 | –
COCC[n+]1c2c(n(Cc3cnccn3)c1C)C(=O)c1ccccc1C2=O + CN(C)S(=O)(=O)c1ccc2c(c1)/C(=C/c1cc3c([nH]1)CCCC3)C(=O)N2 [SU6656] (first compound 0.0004 µM, partner dose 0.4 µM) | – | 82 | 81.6 | 84.8 | 79.6 | 85.5 | 53.7 | 89.5 | 79.8 | –
O=C(CCCCCCC(=O)Nc1ccccc1)NO [vorinostat] + COc1ccc2c(c1)CCC1C2CCC2(C)C(NCCCCCCN3C(=O)C=CC3=O)CCC12 [U73122] (first compound 0.08 µM, partner dose 0.4 µM) | 101 | 100 | 77.7 | 96.2 | 95 | 98.6 | 69.2 | 79.7 | 81.9 | –
C#Cc1cccc(Nc2ncnc3cc(OCCOC)c(OCCOC)cc23)c1 [erlotinib] + COC(=O)c1sccc1S(=O)(=O)Nc1ccc(Nc2ccccc2)cc1OC [GSK0660] (first compound 0.8 µM, partner dose 1 µM) | 93.3 | 96.9 | 92.4 | 128 | 107 | 111 | 113 | 84.1 | 98.8 | –
